Experimental findings from ChEMBL document CHEMBL4888484, “Replenishing the malaria drug discovery pipeline: Screening and hit evaluation of the MMV Hit Generation Library 1 (HGL1) against asexual blood stage Plasmodium falciparum ,using a nano luciferase reporter read-out” (2022) are described below.

Out of some 150,000 compounds screened, about 540 (0.36%) showed an effect of 50% or more. The list shows a part of the results.

This experiment concerns Plasmodium falciparum. The experiment can be described thus: Primary screen in NF54 nanoGlo assay, in single point, at 2uM, 72h; a lower Z score goes with more inhibition. Format: functional, Erythrocyte. As to conditions: timepoint 72 hour.
For orientation: % Inhibition means the change of the read-out against control, counted positive when it falls. `CC(C)(CC(=O)O)NC(=O)Cc1ccc(Cl)cc1Cl`: the “% Inhibition” value is reported as -11% and the Z score was 0.92.

Turning to `CC(=O)NC1CCN(CC2=CCCN([C@@H]3C=CCCC3)C2)CC1`, the “% Inhibition” value is given as 6% and the Z score is on record as -0.87.

In the case of `O=C(Cc1c(F)cccc1Cl)N1CCCCCCC1`, the “% Inhibition” value is -6% and the Z score is 0.64.

Consider `C[C@H](NC(N)=O)C(=O)NCCc1ccccc1Br`, for which the “% Inhibition” value is 4% and the Z score is on record as -0.47.

`O=C(c1ccc2noc(-c3ccccc3)c2c1)N1CC[C@H](c2ncon2)C1`: the “% Inhibition” value is -10% and the Z score is on record as 1.71.

On to `Cc1cccc(C(C)C)c1NCc1csc(CS(C)(=O)=O)n1`, for which the “% Inhibition” value is -1% and the Z score is recorded as 0.07.

With `CCN(CC(=O)OC)Cc1c(CO)cnc(C)c1O`, the “% Inhibition” value is reported as -7% and the Z score is 0.92.

Turning to `CCCCNC(=O)NC[C@H]1CCCS1(=O)=O`, the “% Inhibition” value was found to be 0% and the Z score is -0.03.

For the compound `Cn1nccc1[C@@H]1CN(C(=O)NCC(C)(C)c2cccnc2)CCO1`, the “% Inhibition” value amounted to 7% and the Z score is on record as -1.32.

In the case of `Oc1cc(CCc2nc([C@H]3CCOC3)nn2-c2cccnc2)on1`, the “% Inhibition” value is listed as -12% and the Z score came out at 1.42.

As to `CCn1nc(CO)c2c1CCN(c1ncccc1F)C2`, the “% Inhibition” value was -2% and the Z score was determined as 0.42.

Turning to `O=C1N[C@H]2CN(C(=O)CCN3CCCC3=O)C[C@@H]2OCc2cn(nn2)CCCOc2cc1ccc2Cl`, the “% Inhibition” value was -26% and the Z score came to 3.27.

Consider `CCOc1cc(NC(=O)Cc2ccc(OC)cc2)ncn1`, for which the “% Inhibition” value was -6% and the Z score was 1.09.

In the case of `O=C(C[C@H]1C(=O)Nc2ccccc2N1C(=O)c1ccccc1)Nc1cccc(Cl)c1`, the “% Inhibition” value is recorded as -8% and the Z score turned out to be 1.1.

Take `Cc1nc(CN2C(=O)c3ccccc3C2=O)n(-c2ccccc2)n1`: the “% Inhibition” value is reported as -2% and the Z score came out at 0.22.

Consider `COc1ccc(OC)c(-c2c([C@@H]3c4ccccc4C(=O)N3CCc3ccccc3)c3ccccc3n2C)c1`, for which the “% Inhibition” value was found to be 7% and the Z score was -0.89.

For `COCCCN(C)Cc1cc2cc(C)ccc2nc1N1CCC[C@H](O)C1`, the “% Inhibition” value is given as -8% and the Z score was 1.27.

With `COCc1nn(C)cc1C(=O)N[C@H]1CCN(c2cc(Cl)ccc2OC)C1`, the “% Inhibition” value turned out to be 1% and the Z score is -0.25.

For `OCc1ccc(OCc2nc(C3CCCC3)no2)cc1`, the “% Inhibition” value is 23% and the Z score is reported as -2.92.

For the compound `Cc1cc(C)c(C#N)c(N[C@H]2COC[C@@H]2N2CCCC2)n1`, the “% Inhibition” value is recorded as -4% and the Z score is listed as 0.79.

`O=C(Cn1cn[n+](CC(=O)c2ccc(Cl)cc2Cl)c1)c1ccc(Cl)cc1Cl`: the “% Inhibition” value was -19% and the Z score was found to be 2.76.

With `Cc1cncc(C(=O)N2CC[C@H](N(C(=O)c3cncc(C)c3)C3CC3)C2)c1`, the “% Inhibition” value is reported as 0% and the Z score is on record as -0.02.

Turning to `Cc1cnn(C2CN(Cc3nnsc3Cl)C2)c1`, the “% Inhibition” value was determined as 1% and the Z score is -0.12.

Consider `O=C(NC1CCCCCC1c1ccccc1C(F)(F)F)C1COCCO1` (centres undefined), for which the “% Inhibition” value was -7% and the Z score is 0.77.

Regarding `COCCn1nc([C@@H]2CCCN2Cc2ccc(F)c(F)c2)c2c1CCOC2`, the “% Inhibition” value was -2% and the Z score worked out at 0.17.

In the case of `COc1ccc(N2CCN(Cc3nnc(C)s3)[C@@H](C)C2)cc1`, the “% Inhibition” value was -9% and the Z score is 1.75.

`Cc1cc(CNC(=O)c2cn(C(C)C)nc2C)no1`: the “% Inhibition” value came out at 1% and the Z score is given as -0.14.

On to `O=C(NCc1cncn1C1CC1)c1ccccc1-n1cncn1`, for which the “% Inhibition” value is on record as -3% and the Z score is reported as 0.51.

Take `COc1ccc([C@H](C)N(C)Cc2nc(C)n[nH]2)c(OC)c1`: the “% Inhibition” value was -4% and the Z score worked out at 0.41.

On to `CCc1nc(CCc2ccc3c(c2)OCO3)n(-c2cccnc2)n1`, for which the “% Inhibition” value is -13% and the Z score is 1.74.

`CCOc1ccccc1OCC#CCN1CCN(C)CC1`: the “% Inhibition” value is reported as -22% and the Z score amounted to 2.39.

For the compound `CC(C)CN1C[C@@H](C(=O)NCc2cccc(F)c2)C[C@@H](C(=O)Nc2ccc(F)cc2)C1`, the “% Inhibition” value stood at 5% and the Z score is -0.98.

Take `O=C1COc2ccc(Cl)cc2N1Cc1nc2ccccc2c(=O)[nH]1`: the “% Inhibition” value is recorded as -12% and the Z score is listed as 1.81.

For the compound `CC(C)[C@H](Nc1ccc(C(F)(F)F)cc1Cl)C(=O)Nc1sc2c(c1C(N)=O)CCC2`, the “% Inhibition” value is given as -8% and the Z score was 1.13.

Consider `Cc1ccc(-c2noc(CN3N=NC4C(=O)N(c5ccccc5)C(=O)C43)n2)cc1C` (centres undefined), for which the “% Inhibition” value was -5% and the Z score worked out at 0.77.

Regarding `C=Cn1cc(CNCc2nnc3n2CCCCC3)cn1`, the “% Inhibition” value is given as -1% and the Z score amounted to 0.06.

On to `Cc1nc(C(C)C)sc1CNC(=O)c1ccc(-c2cccc(O)n2)cc1`, for which the “% Inhibition” value is recorded as -3% and the Z score worked out at 0.5.

With `CN(Cc1ccco1)C(=O)C[C@]1(c2ccccc2)CC(=O)N(CCCOc2cccnc2)C1=O`, the “% Inhibition” value is given as -11% and the Z score is 2.02.

For the compound `O=C(c1ccco1)N1CCN(Cc2nnc3n2CCCCC3)CC1`, the “% Inhibition” value is reported as -12% and the Z score is on record as 2.25.

For the compound `CCOc1cccnc1C(=O)N1CCN(CC(F)(F)C(F)F)CC1`, the “% Inhibition” value was -8% and the Z score is 1.15.

Consider `CCCc1nnc(N2C[C@@H]3CN(C4CCCC4)C[C@]3(C(=O)O)C2)s1`, for which the “% Inhibition” value is given as 11% and the Z score was -1.42.

For the compound `COc1ccc(F)cc1S(=O)(=O)N1CC2(C[C@@H](C(=O)N3CCCC3)N(C)C2)C1`, the “% Inhibition” value is listed as -20% and the Z score is 2.32.
